# In PubChem BioAssay AID1476 (National Center for Advancing Translational Sciences (NCATS), 2009):
# The campaign covered roughly 200,000 compounds. About 4,500 (2.2%) were called active. Inconclusive means that the source gave no clear call. Such entries were picked first, then a sample of the others. Calls come from the whole dose curve; as a rule, active = well fitted inhibition curve with a large enough effect; inconclusive = small, poorly fitted or top-dose-only effect, or effect the other way; inactive = flat fitted curve, though single readings scatter. A potency beside an inconclusive call is a rough fit, not a confirmed value.
# Target: Cruzipain (Trypanosoma cruzi) (UniProt P25779)
# Assay: qHTS Assay for Promiscuous and Specific Inhibitors of Cruzain (without detergent); note: nearly all actives have a fitted effect of over 40% in size;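 for max response, negative = inhibition: plate controls were enzyme without inhibitor for no effect and buffer without enzyme for full effect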
# Conditions: purified cruzain, Z-FR-AMC fluorescence, no detergent
# Procedure, shortened: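 Detergent-free condition (0.00005% Triton X-100) in acetate buffer pH 5.5 with DTT. 1.5 nM enzyme and compound were pre-mixed 15 min, then 2 uM Z-FR-AMC substrate added; reaction progress from fluorescence change between first and third reads (60 s).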
# Potency is the fitted concentration of half-maximal effect; tags give direction and shape of the fitted curve.
# Sequence of UniProt P25779 (P25779 whole entry, looked up): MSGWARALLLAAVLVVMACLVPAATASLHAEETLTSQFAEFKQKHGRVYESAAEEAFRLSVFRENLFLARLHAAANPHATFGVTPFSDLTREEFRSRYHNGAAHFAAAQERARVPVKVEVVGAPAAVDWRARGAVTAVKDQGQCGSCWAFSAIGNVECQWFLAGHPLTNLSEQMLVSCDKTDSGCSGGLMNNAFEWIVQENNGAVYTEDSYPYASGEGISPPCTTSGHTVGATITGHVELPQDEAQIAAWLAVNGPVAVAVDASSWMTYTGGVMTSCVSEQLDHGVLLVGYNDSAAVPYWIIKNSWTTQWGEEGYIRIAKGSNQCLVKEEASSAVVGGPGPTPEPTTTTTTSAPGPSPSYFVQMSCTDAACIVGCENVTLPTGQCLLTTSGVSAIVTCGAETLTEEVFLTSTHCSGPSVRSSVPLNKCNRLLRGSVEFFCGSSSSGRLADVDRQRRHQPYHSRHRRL
SMILES,Potency,"max response, negative = inhibition"
Cc1cc(C(=O)CSc2nnc(-c3ccc(F)cc3)o2)c(C)n1CC1COc2ccccc2O1 (stereo not given),active: 15.8 µM,–
O=C(CSc1nc(=O)[nH]c2c1CCCC2)NCc1ccc(F)cc1,–,inactive: 1.95%
COc1ccccc1NC(=O)c1sc2nc3c(cc2c1N)CN(Cc1ccccc1)CC3,"inconclusive: 12.6 µM [inhibitor, partial curve]",–
C/C(=C\C[Si](C)(C)C)CCC=O,"inconclusive: 1.58 µM [activator, single point]",–
COc1ccccc1OCCN1CSC(=S)N(C)C1,active: 20 µM,–
COc1ccc(CNCc2c(C(=O)O)n(Cc3ccc(F)cc3)c3cc(C)ccc23)cc1OC,"inconclusive: 39.8 µM [activator, single point]",–
CCOCCCNC(=O)c1ccc(-n2c(-c3ccccc3)cc3c2CCCCC3)cc1,"inconclusive: 31.6 µM [inhibitor, single point]",–
COCCNC(=O)c1c(N)n(Cc2ccco2)c2nc3ccccc3nc12,"inconclusive: 31.6 µM [activator, single point]",–
O=C(CSc1nc2ccccc2c(=O)n1-c1ccc(F)cc1)Nc1cc(S(=O)(=O)N2CCOCC2)ccc1Cl,"inconclusive: 20 µM [inhibitor, single point]",–
Cc1cc(C)cc(NC(=O)N2CCN(c3cc(-c4noc(C)n4)ccc3C)CC2)c1,–,inactive: 16.2%
CCOC(=O)C1=C(C)NC(C)=C(C(=O)OCC)C1c1cn(-c2ccccc2)nc1-c1ccco1,"inconclusive: 39.8 µM [inhibitor, single point]",–
Cc1nn(-c2ccccc2)c2sc(C(=O)OC3CCOC3=O)cc12 (stereo not given),"inconclusive: 31.6 µM [activator, single point]",–
Cc1ccc(CNC(=O)c2cc3c(s2)-c2c(C)cccc2OC3)cc1,"inconclusive: 31.6 µM [inhibitor, single point]",–
CCOC(=O)c1c(NC(C)=O)c2c3c(sc2n1Cc1nc(-c2ccccc2Cl)oc1C)CCCC3,"inconclusive: 6.31 µM [activator, single point]",–
CC(C)N(C(=O)CN1C(=O)NC2(CCCCCC2)C1=O)C(C)C,"inconclusive: 20 µM [activator, single point]",–
CC1CCCN(CCOc2ccc(Br)cc2)C1 (stereo not given),–,inactive: 4.83%
COc1cc(C(=O)OCC(=O)NCc2ccc(F)cc2)cc(NC(=O)c2cccs2)c1OC,"inconclusive: 31.6 µM [activator, single point]",–
CCc1nnc(NC(=O)CSc2ncc(-c3ccccc3)[nH]2)s1,–,inactive: -0.119%
COc1cc2c(cc1OC)C(c1ccc3c(c1)OCO3)C1=C(CC(C)(C)CC1=O)N2 (stereo not given),"inconclusive: 39.8 µM [activator, single point]",–
CS(=O)(=O)N(Cc1ccc(Cl)cc1)c1ccc(C(=O)N2CCN(c3ccccc3)CC2)cc1,"inconclusive: 25.1 µM [activator, partial curve]",–
O=C(Cn1nnc(-c2ccc(CN3CCOCC3)cc2)n1)Nc1nc(-c2ccccc2)cs1,–,inactive: -29.9%
CCOc1ccc(Oc2cc(NC(=O)c3ccco3)cc([N+](=O)[O-])c2)cc1,"inconclusive: 31.6 µM [inhibitor, single point]",–

SMILES,Potency,"max response, negative = inhibition"
COc1ccc(CNC(=O)Cc2c(C)c3c(cc(C)c4c(C)c(C)oc43)oc2=O)cc1OC,–,inactive: 7.18%
Cc1c(C2CC(=O)N(c3ccccc3)C2=O)[nH]n(-c2ccccc2)c1=O (stereo not given),"inconclusive: 39.8 µM [activator, single point]",–
Cc1ccc(C(=O)NC2c3ccccc3-c3ccccc32)cc1,"inconclusive: 31.6 µM [inhibitor, single point]",–
CC[C@H](C)[C@@H]1NC(=O)c2cc([N+](=O)[O-])cc(F)c2OCC[C@@H](C(N)=O)NC(=O)[C@H](CCCCN)NC1=O,"inconclusive: 31.6 µM [activator, single point]",–
N[C@@](CCc1ccccc1)(C(=O)O)c1ccccc1,–,inactive: 0.0781%
COc1ccc(N2CCN(C(=O)c3cc4c(-c5cccc(OC)c5)nn(C)c4s3)CC2)cc1,"inconclusive: 25.1 µM [activator, partial curve]",–
Fc1ccc(N2CCN(c3ncnc4[nH]ncc34)CC2)cc1,–,inactive: -6.55%
CCOc1ccccc1C(=O)NCC(=O)OCC(=O)c1ccc2c(c1)OCCO2,"inconclusive: 20 µM [inhibitor, partial curve]",–
CCn1cc(C(=O)NCC2CCCO2)c(=O)c2cc(S(=O)(=O)N3CCCCC3)ccc21 (stereo not given),"inconclusive: 39.8 µM [activator, single point]",–
Cc1ccc(C2C(C#N)=C(N)Oc3n[nH]c(-c4cccs4)c32)cc1 (stereo not given),active: 31.6 µM,–
CCOC(=O)c1ccc(N2C(=O)CC(N3CCC(Nc4ccc(F)cc4)CC3)C2=O)cc1 (stereo not given),"inconclusive: 31.6 µM [activator, single point]",–
COc1ccc(/C=C(\C#N)C(=O)OCC(=O)NC(C)c2ccccc2)cc1 (stereo not given),"inconclusive: 39.8 µM [inhibitor, single point]",–
CCc1cc(=O)[nH]c(SCc2nc(-c3ccc(C(F)(F)F)cc3)no2)n1,–,inactive: 12.2%
COc1ccc(N2CCN(C(c3ccc(F)cc3)c3sc4nc(-c5ccco5)nn4c3O)CC2)cc1 (stereo not given),"inconclusive: 39.8 µM [activator, single point]",–
O=C(CSCc1cnn(-c2ccccc2)c1-n1cccc1)N1CCN(Cc2ccccc2)CC1,"inconclusive: 20 µM [activator, partial curve]",–
Cc1ccc(NC(=O)CSc2nccn2C2CCCC2)cc1Cl,"inconclusive: 39.8 µM [activator, single point]",–
CCOC(=O)c1cc(-c2ccc(C)cc2)n(CC(=O)Nc2ccc(OC)cc2OC)c1C,–,inactive: -2.74%
CCOc1ccc(C2CC(c3ccc(CC)cc3)n3nc(N)nc3N2)cc1 (stereo not given),"inconclusive: 25.1 µM [activator, single point]",–
Cc1cc(Cl)ccc1OCC(=O)N(Cc1ccc(N(C)C)cc1)C1CCS(=O)(=O)C1 (stereo not given),"inconclusive: 39.8 µM [activator, single point]",–
COc1ccc(C(=O)N/N=C(\C)c2ccc3c(c2)C2C=CCC2C(c2ccccc2)N3)cc1 (stereo not given),"inconclusive: 15.8 µM [inhibitor, partial curve, poor fit]",–
COc1ccccc1N1CCN(C(=O)CNS(=O)(=O)c2ccc(Br)s2)CC1,"inconclusive: 25.1 µM [activator, single point]",–
CCCC[C@@H]1C[C@H]1C(NC(=O)c1cccs1)c1ccccc1C(F)(F)F (stereo not given in full),–,inactive: -4.64%

SMILES,Potency,"max response, negative = inhibition"
Cc1c(Cl)cnc(NC(=O)COC(=O)Cc2coc3ccc4ccccc4c23)c1Cl,"inconclusive: 31.6 µM [inhibitor, single point]",–
Cc1nn(CCC(=O)Nc2ccccc2Br)c(=O)c2nn(-c3ccccc3)c(C)c12,–,inactive: 10.7%
N#Cc1c(-c2ccccc2)cc2nc3ccccc3n2c1N,"inconclusive: 6.31 µM [inhibitor, single point]",–
COC(=O)c1cc(C)nc2c1c(=O)nc(SCc1ccccc1Cl)n2C1CC1,"inconclusive: 25.1 µM [activator, single point]",–
Cc1ccc(OCC(=O)Nc2ccc3nn(-c4ccc(C)cc4)nc3c2)cc1,–,inactive: -2.45%
CSc1ccc(/C=C/C(=O)c2ccc(NC(=O)Cc3ccccc3)cc2)cc1,"inconclusive: 39.8 µM [inhibitor, single point]",–
CC(C)(C)c1ccc(C(=O)NC(Cc2c[nH]c3ccccc23)C(=O)OCC(=O)c2ccc(Br)cc2)cc1 (stereo not given),active: 10 µM,–
CS(=O)(=O)N(Cc1ccccc1)c1ccc(C(=O)N2CCc3ccccc3C2)cc1,"inconclusive: 25.1 µM [activator, single point]",–
Cc1ccc(C(=O)C(OC(=O)CNC(=O)c2ccc(Cl)cc2)c2ccccc2)cc1 (stereo not given),active: 10 µM,–
CCOC(=O)c1c(NC(=O)CN2C(=O)NC3(CCCCCC3)C2=O)sc(C)c1-c1ccc(C)cc1,"inconclusive: 39.8 µM [inhibitor, single point]",–
COc1ccc(-n2ccn(CC(=O)Nc3ccc(C)cc3C)c(=O)c2=O)cc1,–,inactive: -3.26%
Cc1ccc(Nc2nc(Nc3ccc(C)cc3)nc(SC3=NCCS3)n2)cc1,active: 25.1 µM,–
O=C(CSc1nnc(-c2ccccc2O)o1)Oc1ccc(Br)cc1,"inconclusive: 39.8 µM [inhibitor, single point]",–
CC(C)N(Cc1nc(-c2ccc(Cl)cc2)no1)C(=O)c1ccco1,–,inactive: -0.0909%
COC(=O)c1ccc(NC(=S)Nc2ccc3ccccc3c2)cc1,"inconclusive: 31.6 µM [inhibitor, single point]",–
COC(=O)Nc1nnc(/C=C/c2ccccc2)s1,"inconclusive: 39.8 µM [inhibitor, single point]",–
O=C(CCc1ccccc1)Nc1ccc(N2CCCCC2)cc1,–,inactive: 12.4%
Cc1cccc(N2C(=O)N(Cc3cccc(C#N)c3)c3ccccc3S2(=O)=O)c1,"inconclusive: 39.8 µM [inhibitor, single point]",–
CCc1nnc(N2C(=O)c3cccc4cccc(c34)C2=O)s1,"inconclusive: 2 µM [inhibitor, partial curve]",–
O=C(Cn1c(=O)n(Cc2ccc(C(=O)NCc3ccc4c(c3)OCO4)cc2)c(=O)c2ccccc21)Nc1ccccc1F,active: 12.6 µM,–
Cc1cc(C)c2cc(C#N)c(SCC(=O)NCc3ccco3)nc2c1,"inconclusive: 31.6 µM [inhibitor, single point]",–
